Results published in PubChem BioAssay AID504832 (National Center for Advancing Translational Sciences (NCATS), 2011).
The whole screen tested about 310,000 compounds, of which about 18,000 (5.8%) were called active. The inconclusive results got no clear call from the source; some entries with a clear call stand among them for comparison. The call rests on the fitted dose curve; in most records, active means well fitted inhibition curve with a large enough effect; inconclusive means small, poorly fitted or top-dose-only effect, or another doubt; inactive means no such curve, though single readings can be large or run the other way. Potencies of inconclusive entries are left out as doubtful fits.

experiment: Primary qHTS for delayed death inhibitors of the malarial parasite plastid, 48 hour incubation; conditions: P. falciparum luciferase growth in erythrocytes; series mostly up to 28.7 µM
How it was run: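 Erythrocytes infected with P. falciparum carrying an integrated firefly luciferase reporter (2% hematocrit, 0.1% parasitemia final) were exposed to compounds in RPMI 1640 with 0.5% Albumax at 37 C, 5% CO2. Growth inhibition was scored as reduced luminescence.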
Potency means the concentration at half of the fitted maximal effect; tags describe the fitted curve by direction and shape.

Row | Compound | Potency
1 | C#CCOCCOCCOCCNc1nc(N2CCOCC2)nc(N2CCN(C(=O)[C@H]([C@@H](C)CC)n3cc([C@@H](N)CO)nn3)CC2)n1 | inconclusive [inhibitor, single point]
2 | CC(C)N(C(=O)CSc1nc(COc2ccccc2)nc2ccccc12)C(C)C | inconclusive [inhibitor, single point]
3 | Cc1ccc(Cn2nc(C)c3cc(C(=O)OCC(N)=O)sc32)cc1 | inconclusive [inhibitor, partial curve, poor fit]
4 | CCn1c(C)c(Br)c(=O)c(C(=O)OC)c1-c1ccc(Cl)cc1 | inactive
5 | CN1CC=C2C(C#N)=C(N)C(C#N)(C#N)[C@H](c3cccc(Cl)c3)C2C1 (some centres undefined) | inconclusive [inhibitor, partial curve, poor fit]
6 | C=CCc1c(C)nc(SC)nc1Nc1ccccc1 | inconclusive [inhibitor, single point]
7 | CCCCCCN1C=CC(=C/C=C(\C#N)C(=O)OCC)C=C1 | active: 10.4 µM
8 | O=C(CCc1cn(Cc2ccc(F)cc2)c2ccccc12)N1CCOCC1 | inconclusive [inhibitor, partial curve, poor fit]
9 | COc1ccc(Br)c(C(=O)OCC(=O)NC2CCCCCC2)c1 | inconclusive [inhibitor, partial curve]
10 | O=C(c1cccc(S(=O)(=O)N2CCOCC2)c1)N1CCN(C/C=C/c2ccccc2)CC1 | inconclusive [inhibitor, single point]
11 | COc1cc(-c2nnc(SCC(=O)N3c4ccccc4Sc4ccccc43)o2)cc(OC)c1OC | inconclusive [inhibitor, single point]
12 | COC(=O)c1cn(C(=O)c2ccc(OC)cc2)c2ccccc12 | inactive
13 | O=C(CN1CCN(S(=O)(=O)c2ccc(F)cc2)CC1)Nc1ccc(Cl)c(C(F)(F)F)c1 | inconclusive [inhibitor, single point]
14 | CCCN(CC(=O)Nc1ccccc1C)C(=O)c1sc2ccccc2c1Cl | inconclusive [inhibitor, single point]
15 | CCc1nnc(NC(=O)CCC(=O)N2CCN(CCc3ccccc3)CC2)s1 | inconclusive [inhibitor, partial curve, poor fit]
16 | CNc1nnc(SCC(=O)c2c(N)n(C3CC3)c(=O)[nH]c2=O)s1 | inactive
17 | CC1=C(C(=O)OCC(C)C)C(c2ccc(Br)s2)NC(=O)N1 (centres undefined) | inconclusive [inhibitor, single point]
18 | CN(CC(=O)Nc1ccc(Cl)c(C(F)(F)F)c1)CC(=O)NC1CCCCC1 | inconclusive [inhibitor, single point]
19 | CCOC(=O)/C(C#N)=C1\C(=O)N(Cc2ccccc2)c2ccccc21 | inconclusive [inhibitor, single point]
20 | COc1ccc(OC(C)C(=O)N2CCCc3ccccc32)cc1 (centres undefined) | inactive
21 | COc1cc(Nc2nc(SCC#N)nc3ccccc23)cc(OC)c1OC | inconclusive [inhibitor, partial curve]
22 | CCN1CCc2c(C#N)c(NCc3ccccc3)nc(NCCO)c2C1 | inconclusive [inhibitor, single point]

Row | Compound | Potency
23 | O=C(/C=C/c1cccc([N+](=O)[O-])c1)Nc1ccccc1N1CCOCC1 | inconclusive [inhibitor, single point]
24 | O=C(CSc1ccccc1)Nc1cccc(S(=O)(=O)N2CCOCC2)c1 | inconclusive [inhibitor, single point]
25 | CN(Cc1ccccc1)C(=O)C1CCC(CNS(=O)(=O)c2cccc3cccnc23)CC1 (centres undefined) | inconclusive [inhibitor, single point]
26 | CCOc1ccc(OCc2ccc(C(=O)Nc3cccnc3)cc2)cc1 | inactive
27 | COc1ccc(C(=O)Nc2ccccc2C(=O)O)cc1NC(=O)C(c1ccccc1)c1ccccc1 | inactive
28 | COc1ccc(CN2CCN(Cc3c[nH]c4ccccc34)CC2CCO)c(F)c1 (centres undefined) | inactive
29 | CCOc1ccccc1OCCCCOc1ccccc1F | inactive
30 | COC(=O)C1=C(c2ccc(-c3ccccc3)c(F)c2)C[C@@H]2CC[C@H]1N2C(=O)N1CCC(O)CC1 | inconclusive [inhibitor, partial curve, poor fit]
31 | Cc1onc(-c2c(Cl)cccc2Cl)c1C(=O)N1CCN(c2ccccc2)CC1 | inconclusive [inhibitor, partial curve]
32 | COc1cccc(NC(=O)c2cc(-c3cccnc3)nc3c(Cl)cccc23)c1 | active: 2.08 µM
33 | C=CCNC(=O)C1CCN(S(=O)(=O)c2ccc(Br)cc2)CC1 | active: 10.4 µM
34 | Cc1ccc2[nH]c(C(=O)NCCN3CCCC3)cc2c1 | inconclusive [inhibitor, partial curve, poor fit]
35 | Cc1sc2ncnc(N3CCC(C(=O)Nc4nc(-c5cccs5)cs4)CC3)c2c1C | inconclusive [inhibitor, partial curve]
36 | Cc1cc(NC(=O)CSc2nc(-c3ccc(Cl)cc3)cs2)no1 | inconclusive [inhibitor, partial curve, poor fit]
37 | CN(C)c1ccc(C2CNC(c3ccc(Cl)c([N+](=O)[O-])c3)c3[nH]c4ccccc4c32)cc1 (centres undefined) | inconclusive [inhibitor, partial curve]
38 | CSc1ccc(CN2CCC(CO)(CCOc3ccccc3)CC2)cc1 | inconclusive [inhibitor, partial curve, poor fit]
39 | Cc1ccc(C)c(S(=O)(=O)N2CCN(C(=O)Cn3c(=O)cnc4ccccc43)CC2)c1 | inconclusive [inhibitor, single point]
40 | O=C(c1ccc(Cn2c(=S)[nH]c3ccc(N4CCOCC4)cc3c2=O)cc1)N1CCC(N2CCCCC2)CC1 | inconclusive [inhibitor, full curve, poor fit]
41 | COc1cccc(CNC(=O)c2ccccc2C(=O)NC(C)(C)C(=O)NCc2cccc(OC)c2)c1 | inconclusive [inhibitor, partial curve, poor fit]
42 | N=c1c(C(=O)NC2CCCC2)cc2c(=O)n3ccccc3nc2n1C1CCCC1 | inconclusive [inhibitor, single point]
43 | Cn1c(=O)oc2cc(S(=O)(=O)CCC(=O)Nc3ccccc3)ccc21 | inactive
44 | COc1ccc(CCn2c(=O)c3cccnc3n(Cc3ccc([N+](=O)[O-])cc3)c2=O)cc1OC | inconclusive [inhibitor, single point]

Row | Compound | Potency
45 | CN1CCc2c(sc3c2C(=O)NC(c2ccc(-c4cccc(Cl)c4)o2)N3)C1 (centres undefined) | inconclusive [inhibitor, single point]
46 | CCCC(O)(c1ccc(OC)cc1)C(CN1CCOCC1)c1ccc(Cl)cc1 (centres undefined) | inconclusive [inhibitor, partial curve, poor fit]
47 | CC12CCC(C1)C(C)(C)C2NS(=O)(=O)c1ccc(F)cc1 (centres undefined) | inconclusive [inhibitor, partial curve, poor fit]
48 | O=C(Nc1ccncc1)c1ccccc1Cl | inactive
49 | O=C1C(Cl)=C(N2CCN(c3ccccc3[N+](=O)[O-])CC2)C(=O)c2ccccc21 | inconclusive [inhibitor, single point]
50 | CCn1cc(CN2CCCC(C(=O)c3ccc(-c4ccccc4)c(F)c3)C2)cn1 (centres undefined) | inconclusive [inhibitor, single point]
51 | COc1ccc(N2CCN(C(=O)c3cccc(S(=O)(=O)N4CCCc5ccccc54)c3)CC2)cc1 | inconclusive [inhibitor, partial curve, poor fit]
52 | Cc1cc(C=C2C(=O)c3ccccc3C2=O)c(C)n1-c1cccc(C(=O)O)c1 | inconclusive [inhibitor, full curve, poor fit]
53 | COC(=O)c1cc(=O)n(Cc2cccs2)c(=Nc2ccc(F)cc2)s1 | inconclusive [inhibitor, single point]
54 | CCNC(=O)CON=C1c2ccccc2-c2ccccc21 | inactive
55 | COc1cccc(CN(C)C(=O)c2cc(COc3ccc(-n4cncn4)cc3)on2)c1 | inconclusive [inhibitor, partial curve, poor fit]
56 | CC(C)C(NC(=O)c1ccccc1)C(=O)OCC(=O)N1CCN(c2ccccc2)CC1 (centres undefined) | inconclusive [inhibitor, single point]
57 | COc1ccc(C(=O)C2CCCN(C(=O)c3noc4c3CCCC4)C2)cc1F (centres undefined) | inactive
58 | Cc1ccc(/C=C/C2=Cc3c(sc(NC(=O)CSc4n[nH]c(N)n4)c3C#N)C(C)(C)C2)o1 | inconclusive [inhibitor, partial curve, poor fit]
59 | CCc1cc(=O)oc2cc(C)c(CN3CCCCC3)c(O)c12 | inconclusive [inhibitor, full curve, poor fit]
60 | O=C(NCc1ccccc1Cl)C1CCCN1C(=O)Nc1ccccc1 (centres undefined) | inactive
61 | O=C(CCl)c1ccc2[nH]c(=O)oc2c1 | inconclusive [inhibitor, single point]
62 | O=C(CCn1nc(-c2ccccc2)ccc1=O)N1CCOCC1 | inactive
63 | COc1ccc(COC(=O)N/N=C(\C)CC(=O)Nc2c(C)cc(C)cc2C)cc1 | inconclusive [inhibitor, single point]
64 | CCOc1ccc(CCNC(=O)CCc2nc(-c3ccc(C)cc3)no2)cc1OCC | inconclusive [inhibitor, full curve, poor fit]
